The results in this text go back to publication PMC5892938.

The list shows a part of the results. The source does not settle which construct or isoform was used.

This test concerns the target GST-SBP-ILF3 (Homo sapiens) (UniProt Q12906). Put plainly: targeted RNA Bind-n-Seq. The settings on record: RBNS binding buffer: 25 mM Tris pH 7.5, 150 mM KCl, 3 mM MgCl2, 0.1% Tween, 0.5 mg/mL BSA, 1 mM DTT; 27 nM protein, 750 pM RNA pool; temperature not stated; high values mean tight binding; sequences stand for … in GGGUAAAAGCGAGGUGAA…CGGGACAAGUAUUAUGGG
Consider “UUUUUUUUUUGAGACUGAAGCAGUUUUCUA [tttttgagapaired]”, for which the binding signal (log2 fold change) is -0.0501.
For “UUUUUUUUUUGAGAGGGUGGCCCUCUCCGG [tttttgagapaired]”, the binding signal (log2 fold change) came out at 0.858.
As to “GGUGGUGGUGUUGGAACCUAACACCAUCGC [gtspaired]”, the binding signal (log2 fold change) was -0.307.
As to “UUUUUUUUUUGAGAACGGAUCGUUCUCCAG [tttttgagapaired]”, the binding signal (log2 fold change) came out at 0.194.
In the case of “UUUUUUUUUUGAGACGGAUCCCGUCUCCUG [tttttgagapaired]” it was 0.841; in that of “UUUUUUUUUUGAGAUCGAGACGGUCUUCUA [tttttgagapaired]”, 0.189; in that of “GGUUGGUGUGUUGGUACCUAACACAUCGAC [gtspaired]”, -0.791.
Consider “UUUUUUUUUUGAGACGGCUUCCGUCUCCUG [tttttgagapaired]”, for which the binding signal (log2 fold change) came out at 0.605.
Consider “UUUUUUUUUUGAGAGGGGGACCCUCUCCUG [tttttgagapaired]”, for which the binding signal (log2 fold change) is 0.435.
Turning to “UUUUUUUUUUGAGACUGCUGCAGUUUCCUA [tttttgagapaired]”, the binding signal (log2 fold change) was 0.605.
In the case of “UUUUUUUUUUGAGACUGCGGCAGUUUCCGG [tttttgagapaired]” it was 0.873.
The figure for “GUGUGGUGUGUUGGAGUCUAACACACCGCG [gtspaired]” is -0.527.
For the sequence “UUUUUUUUUUGAGAGCGGCACGCUCUCCAG [tttttgagapaired]”, the binding signal (log2 fold change) turned out to be 0.338.
In the case of “UUUUUUUUUUGAGAGCGGAUCGCUCUCCUG [tttttgagapaired]” it was 0.355; in that of “GUGGUGUGUGUUGGAUUCUAACACAUACCA [gtspaired]”, -0.228.
With “GGUGGUGGUGUUGGUCCCUAACACCGCUAC [gtspaired]”, the binding signal (log2 fold change) is -0.135.
Take “UUUUUUUUUUGAGAGCGGUCCGUUCUCCAG [tttttgagapaired]”: the binding signal (log2 fold change) worked out at 0.68.
On to “GUUGGUGGUGUUGGUCUCUAACACCGCCGA [gtspaired]”, for which the binding signal (log2 fold change) is -0.3.
The figure for “UUUUUUUUUUGAGACUGCUACAGUUUCCAG [tttttgagapaired]” is 0.4; for “GGUUGGUGUGUUGGUUCCUAACACAUCGAC [gtspaired]” it is -1.08.
Take “UUUUUUUUUUGAGAACGAGGCGUUCUCCGG [tttttgagapaired]”: the binding signal (log2 fold change) was 0.103.
“UUUUUUUUUUGAGAGGGGAUCCCUCUCCAG [tttttgagapaired]”: the binding signal (log2 fold change) came out at 0.281.
As for “UUUUUUUUUUGAGAGGGUCCCCCUCUUCUA [tttttgagapaired]”, the binding signal (log2 fold change) was found to be 0.646.
The figure for “GUGGUUGGUGUUGGCAUCUAACACCGACUA [gtspaired]” is -0.774.
As to “UUUUUUUUUUGAGAGGGAACCCCUCUUCUA [tttttgagapaired]”, the binding signal (log2 fold change) was -0.0654.
On to “GUGGUGUGUGUUGGCGCCUAACACACACUA [gtspaired]”, for which the binding signal (log2 fold change) was -0.394.
In the case of “UUUUUUUUUUGAGAGGGACUCCCUCUCCGG [tttttgagapaired]”, the binding signal (log2 fold change) stood at 0.289.
In the case of “GUGUGGUGUGUUGGCUCCUAACACACUACG [gtspaired]” it was -0.49.
